# The supplement of paper PMC10126150
# Sequences with one replicate were seen in a single cluster, so their values are uncertain.
# System: ATP
# Assay: switch fluorescence ratio, 500 uM ATP over buffer (Cy3 cluster intensity, sum of 5 cycles each) (fold (ratio)); higher = stronger signal-on switching upon ATP binding; sequences stand for … in TCGTCGGCAGCGTCAGATGTGTATAAGAGACAGTTTTTTTTTTTTTTTTTTTTTTTTT…TC
# Settings: aptamer strand: ATP DNA aptamer (quencher-CACCTGGGGGAGTATTGCGGAGGAAGG + anchor), 100 nM annealed; ATP concentration: 500 uM; one replicate
# Procedure, shortened: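 The quencher-labelled ATP aptamer, at 100 nM, was annealed to Cy3-labelled switching-strand clusters on a modified Illumina MiSeq flow-cell. The clusters were imaged in selection buffer, then after 15 min with 500 uM ATP at 22 °C, and this buffer/ATP cycle ran five times with NaOH stripping and re-annealing between runs. Per-cluster fluorescence ratios, summed target-cycle over summed buffer-cycle Cy3 intensity, were averaged per switch-domain sequence. Clusters outside 100-1000 RFU were excluded.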
# 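Further: ATP exposure 15 min at 22 °C before imaging.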
row,Sequence,switch fluorescence ratio
1,GTTCGAACCA,1.02
2,GTTCGGAGCA,1.7
3,GTTCGGGTAT,0.985
4,GTTCGTTTGA,0.941
5,GTTCTACA,0.999
6,GTTCTACGAG,1
7,GTTCTATGTT,1.04
8,GTTCTGCAGG,1.05
9,GTTCTGGCCC,1.01
10,GTTCTGTGT,0.984
11,GTTCTTGAGC,1
12,GTTCTTTCAC,1.02
13,GTTCTTTCAT,1.04
14,GTTGAAAGAG,1.02
15,GTTGAATAAT,1.01
16,GTTGACTAAC,0.966
17,GTTGAGGGAT,0.938
18,GTTGAGGTCT,1.01
19,GTTGCCGCCA,0.972
20,GTTGCCGGAG,0.956
21,GTTGCGGACT,0.959
22,GTTGCGGTTA,0.983
23,GTTGCGTGCC,0.993
24,GTTGCTCACT,0.986
25,GTTGGACTCC,1.02
26,GTTGGCACGT,0.991

row,Sequence,switch fluorescence ratio
1,GTTGGGCCCC,0.993
2,GTTGGGGATA,1.02
3,GTTGGGGCAC,0.991
4,GTTGGTAGCG,0.955
5,GTTGGTCACT,1.02
6,GTTGGTTTT,0.991
7,GTTGTAGGAT,1.04
8,GTTGTCTGTT,0.943
9,GTTGTGAGCA,0.969
10,GTTGTGGCGA,0.973
11,GTTGTGGGA,1.05
12,GTTGTGGGAT,0.995
13,GTTGTGTATG,1.01
14,GTTGTTCGTA,1.05
15,GTTGTTCTTT,0.98
16,GTTTAAGAAG,1.01
17,GTTTAAGGTG,1.15
18,GTTTAATAAT,1.02
19,GTTTAATGTG,0.994
20,GTTTACTTTG,1.08
21,GTTTAGCGGG,0.979
22,GTTTATAACA,0.995
23,GTTTCAGACT,1.02
24,GTTTCAGTAT,1.02
25,GTTTCATGCC,0.944
26,GTTTCCTATG,1.03

row,Sequence,switch fluorescence ratio
1,GTTTCCTGGA,0.978
2,GTTTCTAATC,1.01
3,GTTTCTGCGT,0.98
4,GTTTGACAC,0.999
5,GTTTGAGATG,0.971
6,GTTTGAGGAT,1.04
7,GTTTGATTCT,1
8,GTTTGCACCT,1.09
9,GTTTGCCCGT,1.06
10,GTTTGCTGAG,1.01
11,GTTTGGAGAC,1.01
12,GTTTGTGCGT,1.01
13,GTTTGTTGAC,0.996
14,GTTTTAGTTA,0.99
15,GTTTTATATT,1.02
16,GTTTTCACGG,0.991
17,GTTTTGATGT,0.995
18,GTTTTGATTT,0.989
19,GTTTTGGTGA,0.998
20,GTTTTGTTT,0.981
21,GTTTTTCTCG,1.01
22,GTTTTTGAGA,1
23,TAAAAACAAA,0.966
24,TAAAAATGAA,1.04
25,TAAAACCGCG,1.04
26,TAAAACGGGT,1.01

row,Sequence,switch fluorescence ratio
1,TAAAACGGTT,0.947
2,TAAAAGAAA,0.999
3,TAAAAGAGA,1.01
4,TAAAAGCAGT,0.976
5,TAAAATAGG,0.965
6,TAAAATGCAA,1.39
7,TAAACAAATT,0.984
8,TAAACAACCT,2.03
9,TAAACACCCG,1.13
10,TAAACCAAAG,1.06
11,TAAACCTGAG,1.63
12,TAAACGAGTG,0.987
13,TAAACTTATG,1
14,TAAACTTTGC,1.38
15,TAAAGCAGAC,2.21
16,TAAAGCTACC,1.51
17,TAAAGCTGG,1.01
18,TAAAGGAGTC,1.03
19,TAAAGGCCTA,1.01
20,TAAAGTCCCG,0.978
21,TAAAGTGCTC,0.965
22,TAAAGTTGTC,1.01
23,TAAATAGGTC,1.02
24,TAAATATAG,1.03
25,TAAATATCGG,1.02
26,TAAATCAAGT,0.978

row,Sequence,switch fluorescence ratio
1,TAAATCTTCC,2.65
2,TAAATGGGAG,0.957
3,TAAATTAAGA,1.02
4,TAAATTATCG,1.03
5,TAAATTGGAG,1.07
6,TAAATTGGG,1.02
7,TAACAAGATG,1.04
8,TAACACCGTT,0.992
9,TAACACGGGC,1.02
10,TAACCAGGGA,1
11,TAACCGATCT,1.07
12,TAACCGTAA,1.31
13,TAACCGTGTT,1.01
14,TAACCTCGGT,1
15,TAACCTGAAA,1.13
16,TAACGAGCCC,1.08
17,TAACGCGCGC,0.99
18,TAACGGAACG,1.04
19,TAACGGATAT,1.03
20,TAACGGTCTT,0.955
21,TAACGGTGCG,1.12
22,TAACGGTTCG,0.986
23,TAACGTACTT,1.51
24,TAACGTGTCC,1.06
25,TAACTAACAT,1.1
26,TAACTACTG,0.914

row,Sequence,switch fluorescence ratio
1,TAACTAGAAT,0.994
2,TAACTATCGG,0.967
3,TAACTCGTTG,0.99
4,TAACTGATAG,1.01
5,TAACTGTCCA,1
6,TAACTTTTGC,0.996
7,TAAGAACTA,1.03
8,TAAGAACTC,0.984
9,TAAGAAGAAC,1.06
10,TAAGAAGGA,0.994
11,TAAGAATTGC,1.01
12,TAAGACCTGG,0.982
13,TAAGACTTAA,1.02
14,TAAGAGCGTC,0.996
15,TAAGAGGTGC,1.04
16,TAAGAGTGA,0.967
17,TAAGAGTGAG,1.05
18,TAAGATAACG,1
19,TAAGATAAGC,1.08
20,TAAGATCTCA,1.02
21,TAAGCCTGAG,1.22
22,TAAGCGGTCT,0.93
23,TAAGCGTCGG,1.01
24,TAAGCGTGCC,1.04
25,TAAGGACGCC,0.999
26,TAAGGACTGC,1.04

row,Sequence,switch fluorescence ratio
1,TAAGGCAGGT,0.978
2,TAAGGCCTCC,1.04
3,TAAGGCGACA,0.977
4,TAAGGCGTTT,1.02
5,TAAGGCTTGC,1.03
6,TAAGGGAAGA,1.05
7,TAAGGGTAAC,1.16
8,TAAGGGTCCG,0.871
9,TAAGGGTCTG,1.01
10,TAAGGTAATC,0.978
11,TAAGGTCTAA,1
12,TAAGGTTTCC,1.02
13,TAAGTAAAGA,1.02
14,TAAGTAAGGC,1.02
15,TAAGTAGCT,1.06
16,TAAGTATCTC,0.984
17,TAAGTCTCGT,1
18,TAAGTGTACA,1
19,TAAGTTGCAA,0.952
20,TAAGTTTA,1.03
21,TAATAAAAGT,0.987
22,TAATAAGGCG,0.985
23,TAATACAACT,1.03
24,TAATACAGTT,0.986
25,TAATAGTAT,0.992
26,TAATATGGAC,1.02

row,Sequence,switch fluorescence ratio
1,TAATATTAAT,0.97
2,TAATCAAAGA,1.02
3,TAATCACTCG,1
4,TAATCCATTG,0.955
5,TAATCCCAAC,1.09
6,TAATCCCCTG,1.04
7,TAATCCGGGT,1.08
8,TAATCCTGGA,1.06
9,TAATCGAGCC,1
10,TAATCGG,0.986
11,TAATCGTAAT,0.977
12,TAATCTTGAC,1.03
13,TAATGACCCG,1.1
14,TAATGCCTCT,1.05
15,TAATGCGATA,1.05
16,TAATGGGAT,0.96
17,TAATGGGCTG,1.04
18,TAATGGTCTC,1
19,TAATGTACTT,1.46
